The whole screen tested about 45,000 compounds, of which about 65 (0.1%) were called active. Calls follow the shape of the dose curve; as a rule, active = well fitted activation curve with a large enough effect; inconclusive = small, poorly fitted or top-dose-only effect; inactive = no such curve, though single readings can be large or run the other way. The list shows a part of the results.

Sequence of UniProt P54803 (P54803 whole entry, looked up): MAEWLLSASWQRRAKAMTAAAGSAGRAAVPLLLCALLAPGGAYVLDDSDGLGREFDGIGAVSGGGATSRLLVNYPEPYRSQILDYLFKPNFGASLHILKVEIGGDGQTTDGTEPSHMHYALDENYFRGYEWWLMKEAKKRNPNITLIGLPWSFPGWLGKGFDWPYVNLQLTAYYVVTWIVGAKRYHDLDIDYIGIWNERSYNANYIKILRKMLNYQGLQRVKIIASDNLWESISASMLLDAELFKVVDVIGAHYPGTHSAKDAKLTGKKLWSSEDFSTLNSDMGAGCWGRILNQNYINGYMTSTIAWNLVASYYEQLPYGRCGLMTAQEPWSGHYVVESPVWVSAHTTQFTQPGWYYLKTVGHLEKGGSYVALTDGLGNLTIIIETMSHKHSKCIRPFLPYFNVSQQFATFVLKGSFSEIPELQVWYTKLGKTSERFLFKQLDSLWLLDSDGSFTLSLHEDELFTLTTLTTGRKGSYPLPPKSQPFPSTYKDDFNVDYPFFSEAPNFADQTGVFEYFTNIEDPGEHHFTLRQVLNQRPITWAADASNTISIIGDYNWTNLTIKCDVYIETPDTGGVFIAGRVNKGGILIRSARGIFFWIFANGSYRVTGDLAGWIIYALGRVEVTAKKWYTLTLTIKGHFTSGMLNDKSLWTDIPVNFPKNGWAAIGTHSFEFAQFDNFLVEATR

For this assay, the target named is Galactocerebrosidase (Homo sapiens) (UniProt P54803). Nature of the assay: A Novel Cell-Based Assay to Identify Small Molecules for B -Galactocerebrosidase. Also: 0% is about no effect; nearly all actives have a fitted effect of over 65% in size. Particulars: 145M-Twi-hGALC-G270D cells (Twitcher mouse brain line with human GALC G270D), HMU-beta-Gal fluorescence, 48 h; series mostly up to 57.5 µM; activation: at the top concentration. In short, it runs like this:
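Mutant human GALC (G270D), stably expressed in a Twitcher mouse brain cell line lacking endogenous GALC, is measured in live-treated cells via 6-hexadecanoylamino-4-methylumbelliferyl-β-galactoside hydrolysis (0.1 mM final, pH 5.2) with fluorescent detection.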
Turning to `CCN(C(=O)C(NS(=O)(=O)c1ccc(Br)s1)c1ccccc1)c1ccc(C)c(C)c1` (stereo not given), the “activation” value is inactive: -10.4%.
Then `CCOc1ccc(NC(=O)c2c(NCc3cc(OC)c(OC)cc3OC)sc3c2CCCC3)cc1`, with inactive: -41.1%; and `CCC(=O)N1c2ccccc2CC1C(=O)NCCN1CCN(c2cc(Cl)ccc2C)CC1` (stereo not given), with inactive: -23.5%.
Then `COc1ccc(C)cc1NC(=O)Cn1cc(S(=O)(=O)N2CCC(C)CC2)c2ccccc2c1=O`, with inactive: -11%; and `Cc1cc(C)cc(OCC(=O)N2CCC(c3nc4ccccc4o3)CC2)c1`, with inactive: -3.65%.
As for `COC(=O)c1ccccc1NC(=O)C(Cc1ccccc1)N1Cc2ccccc2C1=O` (stereo not given), the “activation” value is inactive: -13.5%.
In the case of `O=C(Cc1ccc(Cl)cc1)Nc1ccc2oc(-c3ccc(F)cc3)nc2c1` it was inactive: 4.41%; in that of `N#C/C(=C\c1ccc(F)cc1)c1nc(-c2ccc(-c3ccccc3)cc2)cs1`, inactive: -18.2%; in that of `CCCC1=Nc2cc(C(=O)NC3CCCCC3)ccc2Sc2ccc(C)cc21`, inactive: -34.8%.
Turning to `Cc1cc(C)c2c(=O)c3c(oc2c1)C(=O)N(CCCOC(C)C)C3c1ccccc1F` (stereo not given), the “activation” value is inactive: 1.81%.
`COc1cccc(CC(=O)Nc2c(C(=O)N3CCN(c4ccccc4F)CC3)oc3ccccc23)c1`: the “activation” value was inactive: -19.6%.
In the case of `COCCCNc1nc2c(c(=O)[nH]c(=O)n2C)n1CC(O)COc1ccc(Cl)cc1` (stereo not given) it was inactive: -9.5%; in that of `CC(=O)Nc1ccc(S(=O)(=O)NCC2CCC(C(=O)NCCc3ccc(C)cc3)CC2)cc1` (stereo not given), inactive: 5.55%.
In the case of `COc1ccc(NC(=O)Cn2c(-c3ccc(F)cc3)cc(C(C)=O)c2C)c(OC)c1` it was inactive: -20.4%; in that of `CC(=O)c1cccc(NC(=O)c2ccc3c(c2)N(Cc2ccc(C)cc2)CCS3)c1`, inactive: -13.2%; in that of `COc1ccc(CCNC(=O)Cn2c(=O)nc(-c3ccccc3)c3cc(Cl)ccc32)cc1OC`, inactive: -20.7%.
In the case of `Cc1ccc(C)c(N2CCN(CCCNC(=O)c3ccc4nc(N5CCC(C)CC5)sc4c3)CC2)c1` it was inactive: -11.2%.
Consider `COc1cc2c(cc1OC)C(CC(=O)O)N(C(=O)Nc1cc(OC)c(OC)c(OC)c1)CC2` (stereo not given), for which the “activation” value is inactive: -15.4%.
Then `CCc1ccc(C2=NN(CCC(=O)NCCc3ccccc3)C(=O)CC2)cc1`, with inactive: -6.66%.
With `COc1ccc(N(CC(=O)NCCc2ccccc2)S(=O)(=O)c2c(C)nn(C)c2C)cc1`, the “activation” value was inactive: -15.4%.
Turning to `CCc1cccc(NC(=O)C(Cc2ccccc2)NS(=O)(=O)c2cccs2)c1` (stereo not given), the “activation” value was inactive: -25.8%.
In the case of `COc1ccc(-n2c(=O)c3c4c(sc3n(Cc3ccccc3C)c2=O)CCCC4)c(OC)c1` it was inactive: -10.3%; in that of `CC(=O)c1ccc(Nc2cc(C)nc3nc(Cc4ccccc4)nn23)cc1`, inactive: 0.703%.
For `CCOc1ccc(C(=O)NCCc2csc(-c3cccc(C)c3)n2)cc1`, the “activation” value is inactive: -9.91%.
Then `CC(C)c1ccc(Nc2sc(C(=O)c3ccccc3)c(N)c2S(=O)(=O)c2ccccc2)cc1`, with inactive: -8.67%; and `CCc1nc2ccc(C(=O)N3CCN(c4cccc(Cl)c4)CC3)cc2nc1CC`, with inactive: -12.9%.
In the case of `CC(C)CC(=O)Nc1nnc(S(=O)(=O)N2c3ccccc3CC2C)s1` (stereo not given) it was inactive: -10.3%; in that of `CCC1(C)CC(=O)c2c(ccc3oc(C(=O)Nc4ccc(C(C)=O)cc4)c(C)c23)O1` (stereo not given), inactive: -16.4%.
In the case of `Cc1ccc(N2CCN(C(=O)Cn3ncc4c([nH]c5ccc(C)cc54)c3=O)CC2)c(C)c1` it was inactive: -6.84%; in that of `NS(=O)(=O)c1ccc(NC(=O)CCC(=O)O)cc1`, inactive: -14.3%.
As to `CCCn1c2ccccc2c2cnn(CC(=O)Nc3cc(OC)c(OC)c(OC)c3)c(=O)c21`, the “activation” value is inactive: -1.69%.
In the case of `COc1ccc(-c2cc3ccc(O)c(CN4CCN(C)CC4)c3oc2=O)cc1OC` it was inactive: -24%; in that of `COc1cc(CNC(=O)c2cnc3c(-c4cccc(C)c4)c(C)nn3c2C)cc(OC)c1OC`, inactive: -16.7%.
Regarding `CCc1ccc(C(=O)COC(=O)C(NC(=O)C2CCC(C)CC2)C(C)C)cc1` (stereo not given), the “activation” value was inactive: -14.5%.
In the case of `CCN(c1ccccc1)S(=O)(=O)c1ccc(NC(=O)c2nc(S(C)(=O)=O)ncc2Cl)cc1` it was inactive: -17.8%; in that of `CCOCCOC(=O)c1ccc2c(c1)N(Cc1ccccc1C#N)C(=O)c1ccccc1S2(=O)=O`, inactive: -11.9%.
As for `CCOc1ccc(CCNC(=O)CCCn2c(=O)c3cccn3c3cccnc32)cc1`, the “activation” value was inactive: -6.84%.
In the case of `Nc1cc(=O)nc(SCC(=O)Nc2ccccc2)n1CCc1ccccc1` it was inactive: -15.3%.
For `CC(=O)Nc1ccc(Nc2ccc3cc(S(=O)(=O)N4CCCCC4)ccc3n2)cc1`, the “activation” value is inactive: -2.21%.
As to `O=C(NC1CC(=O)N(c2ccc(Cl)cc2)C1)c1cc2ccccc2o1` (stereo not given), the “activation” value was inactive: -6.2%.
On to `CCCc1ccc(OCC(=O)Nc2sc3c(c2C(=O)OCC)CCC(C(C)(C)C)C3)cc1` (stereo not given), for which the “activation” value was inactive: -14.4%.
`CC(=O)Oc1cc(C(C)C)c(OCCN(C)C)cc1C`: the “activation” value is inactive: -9.82%.
Then `Cc1ccc2nc3c(cc(C(=O)NC4CCCC4)c(=N)n3C(C)C)c(=O)n2c1`, with inactive: -4.01%; and `O=c1c2cccnc2n(Cc2cccc(F)c2)c(=O)n1Cc1ccc(F)cc1`, with inactive: -16.1%; and `CCC(Nc1ccc(-c2nc(-c3cccnc3)no2)cc1[N+](=O)[O-])c1ccccc1` (stereo not given), with inactive: -15.7%.
Then `COc1ccc2[nH]cc(CCNC(=O)Nc3cc(C)cc(C)c3)c2c1`, with inactive: -16.9%; and `COc1ccccc1Nc1nc(-c2ccccc2)c(CC(=O)O)s1`, with inactive: -11.8%; and `COc1ccc2c(c1)c1c(c(=O)n(-c3cccc(C)c3)c(=O)n1CC(=O)NCCC1=CCCCC1)n2C`, with inactive: -4.98%.
In the case of `CCOC(=O)c1c(-c2ccc(OC)c(OC)c2)csc1NC(=O)c1ccccc1F` it was inactive: -9.73%; in that of `Cc1cccc(CNS(=O)(=O)c2ccc(-c3coc(C)n3)cc2)c1`, inactive: -35.1%.
Take `CCOC(=O)c1cc(-c2ccc(OC)c(S(=O)(=O)N3CCN(c4ccccc4)CC3)c2)on1`: the “activation” value is inactive: -11.8%.
Then `COc1ccc(S(=O)(=O)c2nnn(-c3cccc(Cl)c3)c2N)cc1`, with inactive: -39.3%.
In the case of `Cc1ccccc1OCC(=O)Nc1ccc2nc(SCC(=O)N3CCCC3)sc2c1` it was inactive: -12%.
In the case of `O=C1Cc2cc(S(=O)(=O)Nc3ccc(OC(F)(F)F)cc3)cc3c2N1CCC3` it was inactive: -8.39%; in that of `CCOC(=O)c1c(C)oc2nc(C)nc(NCC3CCN(Cc4ccc(F)cc4)CC3)c12`, inactive: -3.63%; in that of `COc1ccc(CNc2ncnc3c2cnn3-c2ccc(Cl)cc2)cc1`, inactive: -9.95%.
`COc1cccc(-c2ccc3c(N)c(C(=O)c4ccc(F)cc4)sc3n2)c1`: the “activation” value was inactive: -13.2%.
Consider `CC(NC(=O)CCCN1C(=O)CCn2nc(-c3cn(C)c4ccccc34)cc21)c1ccccc1` (stereo not given), for which the “activation” value is inactive: -4.03%.
In the case of `Fc1ccc(-c2nc3c4c(-c5ccccc5)c(-c5ccccc5)oc4ncn3n2)cc1`, the “activation” value is inactive: 4.73%.
Then `Cc1cc(N2CCN(C)CC2)nc2ccc(NC(=O)Nc3ccc(F)cc3F)cc12`, with inactive: -9.12%.
